Publication PMC4336329 (PLoS ONE, 2015)
About 14,000 (4.5%) of roughly 310,000 compounds showed an effect of 50% or more. Effects have a minus sign here. The list shows a part of the results. Where a SMILES comes first, the peptide text is derived from it. The star is where a group is joined. Boc = CC(C)(C)OC(=O)*

Target: human ether-à-go-go-related gene (hERG) potassium channel (human, UniProt Q12809)
Assay: primary screen, population patch clamp on CHO cells stably expressing hERG
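Also: peak tail current of the secondary pulse compared with the same well before compound.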

Sequence of human ether-à-go-go-related gene (hERG) potassium channel (Q12809 whole entry, looked up): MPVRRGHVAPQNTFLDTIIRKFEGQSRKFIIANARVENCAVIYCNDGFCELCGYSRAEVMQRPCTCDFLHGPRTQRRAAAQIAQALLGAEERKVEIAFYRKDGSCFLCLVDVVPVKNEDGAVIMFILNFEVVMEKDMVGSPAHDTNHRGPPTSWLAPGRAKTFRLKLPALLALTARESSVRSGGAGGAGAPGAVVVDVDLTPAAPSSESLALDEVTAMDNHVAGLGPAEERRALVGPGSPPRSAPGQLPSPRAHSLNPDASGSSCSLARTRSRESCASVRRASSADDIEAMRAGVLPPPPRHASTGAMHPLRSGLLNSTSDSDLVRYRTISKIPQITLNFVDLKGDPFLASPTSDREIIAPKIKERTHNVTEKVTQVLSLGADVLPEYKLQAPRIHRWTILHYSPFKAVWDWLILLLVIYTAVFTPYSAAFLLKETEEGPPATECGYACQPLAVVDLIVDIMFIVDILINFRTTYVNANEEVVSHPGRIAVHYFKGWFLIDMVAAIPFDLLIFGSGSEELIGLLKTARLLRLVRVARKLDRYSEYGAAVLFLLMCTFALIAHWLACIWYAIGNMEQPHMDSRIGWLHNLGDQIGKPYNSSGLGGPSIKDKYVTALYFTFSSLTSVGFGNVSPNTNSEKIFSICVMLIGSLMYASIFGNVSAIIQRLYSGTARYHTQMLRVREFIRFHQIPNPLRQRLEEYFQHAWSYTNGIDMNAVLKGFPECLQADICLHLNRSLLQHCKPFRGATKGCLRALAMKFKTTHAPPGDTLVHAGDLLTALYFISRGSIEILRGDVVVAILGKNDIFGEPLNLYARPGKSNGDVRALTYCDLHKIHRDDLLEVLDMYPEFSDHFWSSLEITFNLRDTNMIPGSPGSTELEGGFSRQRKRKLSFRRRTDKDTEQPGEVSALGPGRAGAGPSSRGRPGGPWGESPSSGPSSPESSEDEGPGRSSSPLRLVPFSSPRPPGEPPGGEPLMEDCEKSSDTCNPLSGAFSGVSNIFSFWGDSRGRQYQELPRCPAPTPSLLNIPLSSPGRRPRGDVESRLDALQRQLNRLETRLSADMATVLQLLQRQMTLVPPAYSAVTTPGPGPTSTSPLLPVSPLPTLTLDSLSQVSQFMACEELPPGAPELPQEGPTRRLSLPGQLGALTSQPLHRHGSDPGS

Going from O=C(Nc1ccc(NC(=O)c2cccc([N+](=O)[O-])c2)cc1)c1cccc([N+](=O)[O-])c1 to C=C1C(C(=O)Nc2ccc(OC)cc2)C1C(=O)Nc1ccc(OC)cc1 (stereo not shown), the “hERG current change (%, negative = inhibition) at 10uM” value rises from 6.62% to 23.9%.

First: O=[N+]([O-])c1ccc(NC(=S)NCCc2ccc(Cl)cc2)cc1
Second: C=CCNC(=O)c1ccc(-c2ccc([N+](=O)[O-])cc2)o1
The “hERG current change (%, negative = inhibition) at 10uM” value of the first is higher: -6.71% for the first, -49.1% for the second.

First: O=C(Nc1cccc(S(=O)(=O)N2CCCCC2)c1)c1ccc(OCC2CCCO2)cc1 (stereo not shown)
Second: COc1ccc(N2CCN(S(=O)(=O)c3ccc(C(=O)NC4CCCC4)cc3)CC2)cc1
The “hERG current change (%, negative = inhibition) at 10uM” value of the first is higher: -6.54% for the first, -13.1% for the second.

Going from Cc1sc(NC(=O)CN2CCN(c3ccccn3)CC2)c(C#N)c1C to Cc1cccc(NC(=O)Nc2ccccn2)c1C, the “hERG current change (%, negative = inhibition) at 10uM” value falls from 2.51% to -4.92%.

Going from O=S(=O)(Nc1ccncc1)c1ccc(Cl)cc1 to CC(=O)c1ccc(NS(=O)(=O)c2ccc(C(C)(C)C)cc2)cc1, the “hERG current change (%, negative = inhibition) at 10uM” value rises from -6.96% to 21.7%.

First: CCOc1ccc(NCC(=O)Nc2ccc(Cl)cc2C)cc1
Second: O=C(COC(=O)CNC(=O)c1ccc(Cl)cc1)Nc1ccc(Cl)cc1C(F)(F)F
The “hERG current change (%, negative = inhibition) at 10uM” value of the first is lower: -14.7% for the first, 15.7% for the second.

Going from Cc1ccc(-c2csc(NC(=O)CSC3=NCCS3)n2)cc1 to COc1ccc(NC(=O)CSc2nc(C)cs2)cc1, the “hERG current change (%, negative = inhibition) at 10uM” value falls from 12.6% to 0.534%.

Compared with O=c1cc(-c2ccccc2)nc2cc(-c3ccc(F)cc3)[nH]n12, CCN(CC)c1ccc2cc(-c3nnc(-c4ccccc4)o3)c(=O)oc2c1 is lower in “hERG current change (%, negative = inhibition) at 10uM” value: 14.9% for the first, 1.51% for the second.

Compared with COc1ccc(C=O)cc1CN1C(=O)c2ccccc2C1=O, COc1ccccc1CNS(=O)(=O)c1ccc2c(c1)CCCN2C(C)=O is lower in “hERG current change (%, negative = inhibition) at 10uM” value: 2.39% for the first, 0.483% for the second.

First: O=C(NNC(=O)c1c(F)cccc1F)c1ccccc1-n1cccc1
Second: CCn1c2ccccc2c2cc(NC(=O)c3cccc(OC)c3OC)ccc21
The “hERG current change (%, negative = inhibition) at 10uM” value of the first is higher: 33.8% for the first, -10.5% for the second.

Going from CCCN1CCN(C(=O)C2CCN(c3ncnc4c3nc3n4CCCCC3)CC2)CC1 to COc1cccc(CN2CCC(C(=O)N3CCN(Cc4ccc5c(c4)OCO5)CC3)CC2)c1OC, the “hERG current change (%, negative = inhibition) at 10uM” value falls from -2.38% to -39.5%.

First: CC(=O)Nc1nc(=S)n(-c2ccccc2)[nH]1
Second: CNC(=O)c1nnn(-c2ccccc2)c1C(=O)NC
The “hERG current change (%, negative = inhibition) at 10uM” value of the first is higher: 11% for the first, -2.43% for the second.

First: Cc1ccc(Cl)cc1N1CCN(C(=O)CN(C2CCCCC2)S(C)(=O)=O)CC1
Second: O=C(O)c1c2c(nc3ccc(S(=O)(=O)N4CCC(C(=O)NCc5ccc(Cl)cc5)CC4)cc13)CCCC2
The “hERG current change (%, negative = inhibition) at 10uM” value of the first is lower: -3.38% for the first, 14.8% for the second.

Going from COc1ccc(CCN2CC(C(=O)NCc3ccc(F)cc3)CC2=O)cc1OC (stereo not shown) to COc1ccccc1NC(=O)NCCN1CCN(C(=O)Nc2ccccc2OC)CC1, the “hERG current change (%, negative = inhibition) at 10uM” value rises from 2.45% to 6.68%.

Going from CCC(C)NC(=O)CN1C(=O)CC(C)(C)S(=O)(=O)c2ccccc21 (stereo not shown) to CC(C)(C)C(=O)CN1C(=O)NC2(CCc3ccccc32)C1=O (stereo not shown), the “hERG current change (%, negative = inhibition) at 10uM” value rises from 3.44% to 11%.

First: CCc1ccccc1NC(=S)N(CCCN1CCN(C)CC1)Cc1cccs1
Second: O=C(c1nc2ccccn2c1CNCCCn1ncc2ccccc21)N1CCOCC1
The “hERG current change (%, negative = inhibition) at 10uM” value of the first is lower: -46% for the first, -18.4% for the second.

Compared with COC(=O)C1C2c3ccccc3OC1(C)N=c1s/c(=C/c3cn(C)nc3C)c(=O)n12 (stereo not shown), Cc1[nH]c2ccccc2c1C1(O)C(=O)N(C(C)C)c2ccccc21 (stereo not shown) is higher in “hERG current change (%, negative = inhibition) at 10uM” value: 11.2% for the first, 16.7% for the second.

Going from COc1ccc(CN2CCNC(=O)C2CC(=O)NCCCn2cccn2)cc1C (stereo not shown) to CCCCNC(=O)C1C2C=CC3(CN(Cc4ccc(C)cc4)C(=O)C13)O2 (stereo not shown), the “hERG current change (%, negative = inhibition) at 10uM” value rises from -35.8% to 4.76%.

Going from Cc1cc(C)cc(OCc2nnc(SCC(=O)c3ccc(Br)cc3)o2)c1 to Cc1nnc(SCC(=O)Nc2ccc(O)cc2)c2ccccc12, the “hERG current change (%, negative = inhibition) at 10uM” value rises from -20.1% to 20.9%.

Going from COc1ccc(NS(=O)(=O)c2cc(C(=O)N3CCN(C(C)=O)CC3)ccc2Cl)cc1 to COC(=O)c1ccc(NC(=O)C(=O)N2CCN(C(=S)Nc3cccc(OC)c3)CC2)cc1, the “hERG current change (%, negative = inhibition) at 10uM” value falls from 21% to -6.01%.

First: CCC1=C2CC[C@H]3C(=O)N(C)C(=O)[C@H]3[C@H]2[C@@]2(Cc3ccccc3)C(=NCCOC)OC(=O)N2C1=O
Second: CN(CCOc1ccccc1)S(=O)(=O)c1ccc2oc3ccccc3c2c1
The “hERG current change (%, negative = inhibition) at 10uM” value of the first is lower: -21.5% for the first, 0.537% for the second.

Compared with O=C(NC1CCCCC1)C1CCCN(c2nnnn2-c2ccccc2)C1 (stereo not shown), CCC(=O)Nc1cccc(-n2nnnc2SCC(=O)N(C(C)C)C(C)C)c1 is lower in “hERG current change (%, negative = inhibition) at 10uM” value: 1.95% for the first, -14.8% for the second.

First: CCN(CC)CCCNc1nc(-n2nc(C)cc2C)nc2sc3c(c12)CC(C)(C)OC3
Second: CCOC(=O)c1c(C)[nH]c(C(=O)OCC(=O)Nc2sc(C(=O)N(C)C)c(C)c2C(=O)OCC)c1C
The “hERG current change (%, negative = inhibition) at 10uM” value of the first is lower: -23% for the first, -6.87% for the second.

Going from CC(=O)NCCCC(=O)NNC1CC(=O)N(c2cccc(Cl)c2)C1=O (stereo not shown) to N#CC1=C(SCC(=O)Nc2ccccc2)NC(=O)CC1c1ccco1 (stereo not shown), the “hERG current change (%, negative = inhibition) at 10uM” value falls from 20.8% to 5.41%.

Going from C=CCn1nnnc1SCC(=O)Nc1ccc(OC)cc1 to COc1ccc(/C=C(/NC(=O)/C=C/c2ccccc2)C(=O)O)cc1, the “hERG current change (%, negative = inhibition) at 10uM” value rises from 17.5% to 24.9%.

Going from N#Cc1ccc(N2CCOCC2)nc1 to O=C(NNC(=O)C12CC3CC(CC(C3)C1)C2)c1cnccn1, the “hERG current change (%, negative = inhibition) at 10uM” value rises from -0.729% to 5.77%.

Compared with CS(=O)(=O)C1=NSC2=NC(=O)/C(=C\c3cccn3-c3ccc(Cl)cc3)C(=N)N21, CCOC(=O)c1ccsc1NC(=O)c1ccco1 is higher in “hERG current change (%, negative = inhibition) at 10uM” value: 2.85% for the first, 12.8% for the second.

With CC(C)CC(NC(=O)OC(C)(C)C)C(=O)NC(C(=O)NC(C)C(N)=O)C(C)C (stereo not drawn) (Boc-Leu-Val-Ala-NH2; configuration not given here) the “hERG current change (%, negative = inhibition) at 10uM” value was -5.61%.
